Source: the RNAGym collection of RNA variant scans (doi:10.1093/nar/gkz1192)
Read counts are not given, so values of variants with three or more changes are uncertain.

B1: CPEB3 Ribozyme (parent)
chain: UAACAGGGGGCCACAGCAGAAGCGUUCACGUCGCAGCCCCUGUCAGAUUCUGGUGAAUCUGCGAAUUCUGCUGUAUAUCUC

Variants of: B1
Assay: self-cleavage, relative activity (ratio to wild type); higher = more cleavage; in vitro, sequencing
Method in brief: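 Barcoded CPEB3 ribozyme mutants, produced by rounds of error-prone PCR, self-cleaved while being transcribed with T7 RNA polymerase for 5 hours at 37°C and during a subsequent 15 min DNase I step before EDTA was added. Sequencing of template-switched cDNA on Illumina gave cleaved and total reads, and DNA sequencing assigned barcodes to variants. Each variant's relative activity is its cleaved/total read fraction divided by the unmutated ribozyme's fraction, averaged across three batches. A variant needed a minimum of 5 reads.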

With UAACCGGGGGCCACAGCAGAAGCGUUCACGUCGCAGCCCCUGUCAGAUUCUAGUGAAUCUGGGAAUUCUGCUGUAUAUCUC as the variant, how does the self-cleavage read?
The self-cleavage was 0.15.

With UAACCGGGGGCCACAGCAGAAGCGUUCACGUCGCAGCCCCUGUCAGAUUCUGCUGAAUCUGCGAAUUCCGCUGUAUAUCUC as the variant, how does the self-cleavage read?
Its self-cleavage is 0.79.

With UAACCGGGGGCCACAGCAGAAGCGAUCGCGCCGCAGCCCCUGUCAGAUUCUGGUGAAUCUGCGAGUUCUGCUGUAUAUCUC as the variant, how does the self-cleavage read?
Its self-cleavage is 0.06.

Which self-cleavage does the source give for UAACCGGGGGCCACAGCAGAAGCGAUCAGGUCGCAGCCCCUGUCAGAUCCUGGUGAAUCUGCGAAUUCUGCUGCAUAUCGC here?
The self-cleavage was 0.21.

For UAACCGGGGGCCACAGCAGAAGCGAUCACGUCGUAGCCCCUGUCAGAUUCUGGUGAACCUGCGAAUUCUGCUGUAUAUCUC, which self-cleavage is on record?
The self-cleavage was 0.16.

Which self-cleavage does the source give for UAACCGGGGGCCACAGCAGAAGCGAUCACGUCGCAGCCCCUGCCAGAUUCUGGUGAAUCUGCGAAUUCUGCUGUAUAUCCC here?
The self-cleavage was 0.25.

For UAACCGGGGGCCACAGCAGAAGCGCUCACGUCGCCGCCCCUGUCAGAUUCUGGUGAAUCUGCGAAUUCUGCUGUAUAUCUC, which self-cleavage is on record?
Its self-cleavage is 0.39.

For UAACCGGGGGCCACAGCAGAAGCGCUCAUGUCGCAGCCCCUGUCAGAUUCUGGUGAAUUUGCGAAUUCUGCUGCAUAUCUC, which self-cleavage is on record?
The self-cleavage was 0.12.

With UAACCGGGGGCCACAGCAGAAGCGCUCACGUCGCAGCCCCUGUCAGAUUCUGGUGAAUUUGCGAAUUCUGCCGUAUAUCUC as the variant, how does the self-cleavage read?
Its self-cleavage is 0.58.

Which self-cleavage does the source give for UAACCGGGGGCCACAGCAGAAGCGCUCACGUCGCAACCCCUGUCAGAUUCUGGUGUAUCUGCGAAUUCUGCUGUAUAUCCC here?
Its self-cleavage is 0.17.

For UAACCGGGGGCCACAGCAGAAGCGCUCACGUCGCAGCCCCAGACAGAUUCUGGCGAAACUGCGAAUUCAGCUGUAUAUCUC, which self-cleavage is on record?
The self-cleavage was 0.07.

With UAACCGGGGGCCACAGCAGAAGCGCUCACGUCGCAGCCCCUGUCAGAUUCUGGUGAAUCUGCGAACUGUGCCGUAUAUCUC as the variant, how does the self-cleavage read?
Its self-cleavage is 0.04.

With UAACCGGGGGCCACAGCAGAAGCGUACACGCCGCUGCCCCUGUCAGAUUCUGGCGAAUCUGCGAAUACUGCUGUAUAUCCC as the variant, how does the self-cleavage read?
The self-cleavage was 0.07.

Which self-cleavage does the source give for UAACCGGGGGCCACAGCAGAAGCGUACACGUCGCAGCCCCUGUCAGAUUCUGGUGAAUCAGCGAAUUCUGCUGUAUAUCUC here?
The self-cleavage was 0.8.

With UAACCGGGGGCCACAGCAGAAGCGUCCACGUCGCAGCCCCCGUCAGAUUCUGGUGAAUCUGCGAAUUCUGCUGUAUAUCUC as the variant, how does the self-cleavage read?
Its self-cleavage is 0.17.

With UAACCGGGGGCCACAGCAGAAGCGUCCACGUCGCAGCCCCUGUCAGAUUCAGGUGAAUCUGCGAAUUCCGCUGUAUAUCUC as the variant, how does the self-cleavage read?
Its self-cleavage is 0.31.

For UAACCGGGGGCCACAGCAGAAGCGUUCACGACGCGGCCCCUGUCAGUUUCUGGUGAAUCUGCGAAUUCUGCUGUAUAUCUC, which self-cleavage is on record?
The self-cleavage was 0.77.

For UAACCGGGGGCCACAGCAGAAGCGUUCACGACGCAGCCCCUGUCAGAUCCUGGUGAAUCCGCGAACUCUGCUGUAUAUCUC, which self-cleavage is on record?
The self-cleavage was 0.12.

With UAACCGGGGGCCACAGCAGAAGCGUUCACGACGCAGCCCCUGUCAGAUUCUGGUGAACCUGCGUAUUCUGCUGUAUAUCUC as the variant, how does the self-cleavage read?
Its self-cleavage is 0.18.

Which self-cleavage does the source give for UAACCGGGGGCCACAGCAGAAGCGUUCACGCCGCAGCCCCUGUCAGGUUCUGGUGAAUCUGCGAAUUCCGCUGUUUAUCUC here?
Its self-cleavage is 0.16.

With UAACCGGGGGCCACAGCAGAAGCGUUCACGCCGCAGCCCCUGUCAGAUUCUGGUGUAUCUGUGAAUUCUGCUGUAUGUCUC as the variant, how does the self-cleavage read?
The self-cleavage was 0.1.

For UAACCGGGGGCCACAGCAGAAGCGUUCACGCCGCAGCCCCAGUCAGAUUCAGGCGAAUCUGCGAAUUCUGCUGUAUAUCUC, which self-cleavage is on record?
The self-cleavage was 0.15.

For UAACCGGGGGCCACAGCAGAAGCGUUCACGCCGCAGCCCCUGUCAGAUUCUGGCGAAUCUGCGAAUUCUGCUGUAUGUCCC, which self-cleavage is on record?
Its self-cleavage is 0.71.

Which self-cleavage does the source give for UAACCGGGGGCCACAGCAGAAGCGUUCACGCCGCAGCCCCUGUCAGAUUCUGGUGAAUCUGCGAAUUCUGCUGUAUAUCCC here?
Its self-cleavage is 0.58.

Which self-cleavage does the source give for UAACCGGGGGCCACAGCAGAAGCGUUCACGUCGCAGCCCCAGUCAGUUUCUGGUGAUUCUGCGAAUUCUGCUGUAUAUCUC here?
Its self-cleavage is 0.33.

For UAACCGGGGGCCACAGCAGAAGCGUUCACGUCGCAGCCCCUGCCAGACUCUGGUGAUUCUGCGAAUUCUGCUGCAUAUCUC, which self-cleavage is on record?
Its self-cleavage is 0.07.

Which self-cleavage does the source give for UAACCGGGGGCCACAGCAGAAGCGUUCACGUCGCAGCCCCUGCCAGACUCUGGUGAAUCUGCGAACUCUACUGUAUAUCUC here?
Its self-cleavage is 0.25.

For UAACCGGGGGCCACAGCAGAAGCGUUCACGUCGCAGCCCCUGGCAGAUUCUGGUGGAUCUGCGAAUUCUGCUGUAUAUCUC, which self-cleavage is on record?
Its self-cleavage is 0.34.

For UAACCGGGGGCCACAGCAGAAGCGUUCACGUCGCAGCCCCUGUCAGAUUCAGGUGAAUCUGCGAGUUCUGCUGUAUUUCUC, which self-cleavage is on record?
The self-cleavage was 0.57.

Which self-cleavage does the source give for UAACCGGGGGCCACAGCAGAAGCGUUCACGUCGCAGCCCCUGUCAGAUUCCGGUGAAUCUGCGAAUUCUGCUGUAUAUUUC here?
Its self-cleavage is 0.71.

For UAACCGGGGGCCACAGCAGAAGCGUUCACGUCGCAGCCCCUGUCAGAUUCCGGUGAAUCAGCGAAUUCUGCUGUAUACCUC, which self-cleavage is on record?
The self-cleavage was 0.38.

For UAACCGGGGGCCACAGCAGAAGCGUUCACGUCGCAGCCCCUGUCAGAUUCUGGUGAAUCUGCGAAUUCCGCAGUAUAUCUC, which self-cleavage is on record?
The self-cleavage was 0.33.

Which self-cleavage does the source give for UAACCGGGGGCCACAGCAGAAGCGUUCACGUCGCAGCCCCUGUCAGAUUCUGGUGAAUCUGCGAAUUCCGCUGUAUAACUC here?
Its self-cleavage is 0.59.

With UAACGGGGGGCCCCAGCAGAAGCGUUCGCGUCGCAGCCCCUGUCAGAUUCUGGUGAAUCAGCGAAUUCUGCUGUAUAUCUC as the variant, how does the self-cleavage read?
Its self-cleavage is 0.26.
